In the test the target is endogenous ATM in immortalized MEFs (mouse, UniProt Q62388 2-3066). Description: co-immunoprecipitation: anti-HA IP from HA-cGAS-reconstituted cGAS-/- MEFs with or without doxorubicin, immunoblot for ATM. In general terms: In western blotting, separated proteins are transferred to a membrane and probed.
UniProt Q62388, sequence (Q62388 2-3066 limits assumed): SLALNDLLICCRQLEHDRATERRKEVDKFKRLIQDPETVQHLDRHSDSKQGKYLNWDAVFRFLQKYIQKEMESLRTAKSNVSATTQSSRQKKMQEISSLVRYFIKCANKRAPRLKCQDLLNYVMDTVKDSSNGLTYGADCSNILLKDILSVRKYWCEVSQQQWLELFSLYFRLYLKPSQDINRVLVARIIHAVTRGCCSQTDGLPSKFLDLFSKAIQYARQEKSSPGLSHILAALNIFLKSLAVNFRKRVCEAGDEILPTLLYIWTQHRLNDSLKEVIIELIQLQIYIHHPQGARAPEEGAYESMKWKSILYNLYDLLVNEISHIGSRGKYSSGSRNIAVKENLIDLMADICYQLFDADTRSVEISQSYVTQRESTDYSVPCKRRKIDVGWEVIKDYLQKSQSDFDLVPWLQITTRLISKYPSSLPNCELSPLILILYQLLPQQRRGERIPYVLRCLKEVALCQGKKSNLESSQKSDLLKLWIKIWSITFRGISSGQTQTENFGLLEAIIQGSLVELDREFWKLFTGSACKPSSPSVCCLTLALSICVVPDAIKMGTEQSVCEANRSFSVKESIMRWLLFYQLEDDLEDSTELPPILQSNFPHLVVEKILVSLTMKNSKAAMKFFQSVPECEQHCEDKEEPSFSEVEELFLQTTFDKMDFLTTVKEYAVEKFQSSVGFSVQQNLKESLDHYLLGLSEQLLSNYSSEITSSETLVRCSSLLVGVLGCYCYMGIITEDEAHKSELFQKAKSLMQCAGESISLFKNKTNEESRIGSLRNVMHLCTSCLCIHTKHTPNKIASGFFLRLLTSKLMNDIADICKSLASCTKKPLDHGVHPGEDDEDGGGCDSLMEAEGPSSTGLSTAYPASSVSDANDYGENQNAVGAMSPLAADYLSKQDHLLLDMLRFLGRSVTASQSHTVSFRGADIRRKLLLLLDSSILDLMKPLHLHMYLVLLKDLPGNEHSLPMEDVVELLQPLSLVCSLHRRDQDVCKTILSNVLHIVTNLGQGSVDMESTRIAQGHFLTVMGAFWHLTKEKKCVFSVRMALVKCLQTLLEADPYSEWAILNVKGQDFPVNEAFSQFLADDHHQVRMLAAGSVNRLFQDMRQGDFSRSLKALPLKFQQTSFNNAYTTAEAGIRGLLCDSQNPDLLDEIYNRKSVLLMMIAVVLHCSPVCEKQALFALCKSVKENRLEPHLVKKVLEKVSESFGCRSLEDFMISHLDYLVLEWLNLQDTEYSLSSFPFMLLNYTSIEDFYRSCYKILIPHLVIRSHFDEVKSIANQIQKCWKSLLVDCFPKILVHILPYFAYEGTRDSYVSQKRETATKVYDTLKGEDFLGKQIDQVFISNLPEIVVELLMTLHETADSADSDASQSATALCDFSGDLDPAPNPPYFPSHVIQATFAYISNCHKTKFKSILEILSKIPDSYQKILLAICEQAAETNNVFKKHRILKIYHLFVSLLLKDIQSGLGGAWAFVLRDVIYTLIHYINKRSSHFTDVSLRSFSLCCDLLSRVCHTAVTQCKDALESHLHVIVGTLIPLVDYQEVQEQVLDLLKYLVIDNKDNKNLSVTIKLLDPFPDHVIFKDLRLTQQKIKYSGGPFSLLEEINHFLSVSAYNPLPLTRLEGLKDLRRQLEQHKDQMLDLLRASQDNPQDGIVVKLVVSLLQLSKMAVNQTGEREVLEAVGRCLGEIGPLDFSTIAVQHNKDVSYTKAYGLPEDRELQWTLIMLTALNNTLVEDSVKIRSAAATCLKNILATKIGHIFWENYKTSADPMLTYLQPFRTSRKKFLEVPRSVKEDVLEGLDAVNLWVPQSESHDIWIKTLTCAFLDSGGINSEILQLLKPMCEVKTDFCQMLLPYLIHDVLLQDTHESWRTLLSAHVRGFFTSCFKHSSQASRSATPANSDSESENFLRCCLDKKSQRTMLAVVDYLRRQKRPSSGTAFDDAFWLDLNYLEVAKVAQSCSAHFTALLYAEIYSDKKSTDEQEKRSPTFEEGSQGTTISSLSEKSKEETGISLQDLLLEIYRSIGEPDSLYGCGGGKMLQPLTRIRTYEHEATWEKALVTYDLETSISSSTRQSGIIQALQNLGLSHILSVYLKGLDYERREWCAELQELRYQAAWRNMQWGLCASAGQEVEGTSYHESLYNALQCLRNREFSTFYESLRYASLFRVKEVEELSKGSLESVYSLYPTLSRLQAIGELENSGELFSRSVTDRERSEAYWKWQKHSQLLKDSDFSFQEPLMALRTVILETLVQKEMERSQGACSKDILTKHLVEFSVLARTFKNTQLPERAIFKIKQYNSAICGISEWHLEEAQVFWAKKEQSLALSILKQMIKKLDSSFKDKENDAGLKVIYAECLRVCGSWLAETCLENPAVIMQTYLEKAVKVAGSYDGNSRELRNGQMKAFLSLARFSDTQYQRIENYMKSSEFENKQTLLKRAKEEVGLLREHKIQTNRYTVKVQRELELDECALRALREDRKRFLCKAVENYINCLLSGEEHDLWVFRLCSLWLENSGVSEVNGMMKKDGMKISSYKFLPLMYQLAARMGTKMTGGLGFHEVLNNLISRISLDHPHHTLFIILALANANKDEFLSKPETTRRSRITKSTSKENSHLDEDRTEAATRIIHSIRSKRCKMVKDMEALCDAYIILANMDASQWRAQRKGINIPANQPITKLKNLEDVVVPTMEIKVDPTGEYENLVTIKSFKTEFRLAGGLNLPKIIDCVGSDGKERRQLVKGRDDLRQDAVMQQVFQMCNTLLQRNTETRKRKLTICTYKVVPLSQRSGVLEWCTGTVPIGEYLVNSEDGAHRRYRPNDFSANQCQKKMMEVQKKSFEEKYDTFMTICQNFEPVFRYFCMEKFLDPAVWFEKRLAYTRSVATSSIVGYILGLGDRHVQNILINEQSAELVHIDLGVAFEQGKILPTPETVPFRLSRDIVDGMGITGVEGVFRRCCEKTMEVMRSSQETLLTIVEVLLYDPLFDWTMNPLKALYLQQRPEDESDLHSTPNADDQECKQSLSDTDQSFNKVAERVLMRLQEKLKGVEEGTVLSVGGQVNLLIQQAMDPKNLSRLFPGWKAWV

B1: HA-cGAS in HA-cGAS-reconstituted cGAS-/- immortalized MEFs (enzyme)
chain: not shown
notes: also called nuclear translocated cGAS; not shown: HA tag
Turning to B1, the binding result is “no binding”.

These data come from US20240335465A1 (UNIVERSITY OF VIRGINIA PATENT FOUNDATION, published 2024).
